Measured values from the supplement of paper PMC11876631.
Residue numbers refer to the chain shown, from its start. Names and notes keep the numbering of the source. ± gives the standard deviation of the averaged measurements. Laboratory Escherichia coli strains with one amino-acid change in an essential protein, pooled on minimal glucose agar with carbenicillin or gentamicin at twice the control MIC (plus kanamycin and chloramphenicol for the plasmids), 48 h. Fold change of barcode share against drug-free plates; higher = less susceptible. Active = above 20 in both replicates (the paper's putatively resistant). '<' = one read or none on drug, '>' = one read or none on a drug-free plate. Shares are relative, so most strains fall below 1 when a few take over. Listed are strains with at least 15 reads on both drug-free plates, and hits; most hits rest on fewer reference reads. Replicate rank correlation about 0.5. Edits are read from barcodes.

B1: ftsW I124A (protein)
chain: MRLSLPRLKMPRLPGFSILVWISTALKGWVMGSREKDTDSLIMYDRTLLWLTFGLAAIGFIMVTSASMPIGQRLTNDPFFFAKRDGVYLILAFILAIITLRLPMEFWQRYSATMLLGSIILLMAVLVVGSSVKGASRWIDLGLLRIQPAELTKLSLFCYIANYLVRKGDEVRNNLRGFLKPMGVILVLAVLLLAQPDLGTVVVLFVTTLAMLFLAGAKLWQFIAIIGMGISAVVLLILAEPYRIRRVTAFWNPWEDPFGSGYQLTQSLMAFGRGELWGQGLGNSVQKLEYLPEAHTDFIFAIIGEELGYVGVVLALLMVFFVAFRAMSIGRKALEIDHRFSGFLACSIGIWFSFQALVNVGAAAGMLPTKGLTLPLISYGGSSLLIMSTAIMMLLRIDYETRLEKAQAFVRGSR
B2: ftsW V201P (protein)
chain: B1 chain with A124I, V201P
B3: ftsW V201A (protein)
chain: B1 chain with A124I, V201A
B4: ftsW V201D (protein)
chain: B1 chain with A124I, V201D
B5: ftsW V201W (protein)
chain: B1 chain with A124I, V201W
B6: ftsW I223A (protein)
chain: B1 chain with A124I, I223A
B7: ftsW L238A (protein)
chain: B1 chain with A124I, L238A
B8: ftsW V201Q (protein)
chain: B1 chain with A124I, V201Q
B9: argC I149W (protein)
chain: MLNTLIVGASGYAGAELVTYVNRHPHMNITALTVSAQSNDAGKLISDLHPQLKGIVDLPLQPMSDISEFSPGVDVVFLATAHEVSHDLAPQFLEAGCVVFDLSGAFRVNDATFYEKYYGFTHQYPELLEQAAYGLAEWCGNKLKEANLWAVPGCYPTAAQLALKPLIDADLLDLNQWPVINATSGVSGAGRKAAISNSFCEVSLQPYGVFTHRHQPEIATHLGADVIFTPHLGNFPRGILETITCRLKSGVTQAQVAQVLQQAYAHKPLVRLYDKGVPALKNVVGLPFCDIGFAVQGEHLIIVATEDNLLKGAAAQAVQCANIRFGYAETQSLI
B10: argC V75P (protein)
chain: B9 chain with V75P, W149I
B11: argC I149Q (protein)
chain: B9 chain with W149Q
B12: argC I149D (protein)
chain: B9 chain with W149D

Target: Escherichia coli (laboratory strain)
Test: barcode share on antibiotic plates over drug-free plates; higher = less susceptible
Experimental: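 A pool of E. coli strains, each edited to carry one amino-acid change in an essential protein, was grown for 48 h on minimal glucose agar with or without antibiotic; strain barcodes were sequenced; mean of two replicates.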

[1] = antibiotic: carbenicillin, 2× MIC (3.1 µg/mL)
[2] = antibiotic: gentamicin, 2× MIC (MIC 0.45 µg/mL)

Protein	fold change of barcode share [1]	fold change of barcode share [2]
B1	0.191 ± 0.23	< 0.0179
B2	0.491 ± 0.042	0.00723 ± 0.001
B3	0.489 ± 0.072	0.0062 ± 0.0011
B4	0.266 ± 0.066	0.00466 ± 0.0011
B5	0.368 ± 0.061	0.00678 ± 0.0069
B6	0.327 ± 0.11	< 0.0156
B7	0.278 ± 0.06	–
B8	1.29 ± 0.4	0.00622 ± 0.0015
B9	0.465 ± 0.041	0.0181 ± 0.013
B10	0.274 ± 0.12	0.0238 ± 0.018
B11	2.98 ± 0.96	–
B12	> 22.6 [active]	–
